This note sets out measurements from a collection of fitness landscapes (doi:10.1126/science.1257360).

This is one part of the list.

B1: PhoQ; a variant is named by its letters at X, in order, P23837 (parent)
chain: MKKLLRLFFPLSLRVRFLLATAAVVLVLSLAYGMVALIGYSVSFDKTTFRLLRGESNLFYTLAKWENNKLHVELPENIDKQSPTMTLIYDENGQLLWAQRDVPWLMKMIQPDWLKSNGFHEIEADVNDTSLLLSGDHSIQQQLQEVREDDDDAEMTHSVAVNVYPATSRMPKLTIVVVDTIPVELKSSYMVWSWFIYVLSANLLLVIPLLWVAAWWSLRPIEALAKEVRELEEHNRELLNPATTRELTSLVRNLNRLLKSERERYDKYRTTLTDLTHSLKTPLXXLQXXLRSLRSEKMSVSDAEPVMLEQISRISQQIGYYLHRASMRGGTLLSRELHPVAPLLDNLTSALNKVYQRKGVNISLDISPEISFVGEQNDFVEVMGNVLDNACKYCLEFVEISARQTDEHLYIVVEDDGPGIPLSKREVIFDRGQRVDTLRPGQGVGLAVAREITEQYEGKIVAGESMLGGARMEVIFGRQHSAPKDE

The variants in the assay derive from B1. Put plainly: enrichment ratio after two sorts for PhoP signalling (ratio (wild type AVST 3.29)); higher = more functional. To be noted: with PhoP (E. coli).
On to GVVH, for which the enrichment ratio was at most 0.25.

With QESG, the enrichment ratio was determined as 6.03.

As for DRCV, the enrichment ratio is at most 0.25.

Turning to IPVF, the enrichment ratio was at most 0.25.

LTMR: the enrichment ratio was at most 0.25.

Regarding YNET, the enrichment ratio was at most 0.25.

For the variant QPHT, the enrichment ratio was at most 0.25.

Regarding DLWM, the enrichment ratio was at most 0.25.

As to FFLN, the enrichment ratio was at most 0.25.

As for YEMY, the enrichment ratio was at most 0.25.

Regarding YSFE, the enrichment ratio was at most 0.25.

Take PMTA: the enrichment ratio was at most 0.25.

As to EPTV, the enrichment ratio is at most 0.25.

For the variant HRHL, the enrichment ratio is at most 0.25.

Consider GPSN, for which the enrichment ratio is at most 0.25.

Turning to YPPL, the enrichment ratio is at most 0.25.

With QGPP, the enrichment ratio is at most 0.25.

Turning to TCNW, the enrichment ratio is at most 0.25.

As for PPAA, the enrichment ratio is at most 0.25.

For YMAS, the enrichment ratio was at most 0.25.

For the variant DVGN, the enrichment ratio is at most 0.25.

As to QFYC, the enrichment ratio was at most 0.25.

Regarding YKKF, the enrichment ratio is at most 0.25.

Take RIHD: the enrichment ratio is at most 0.25.

In the case of FFPE, the enrichment ratio is at most 0.25.

With EYQD, the enrichment ratio is at most 0.25.

As for SKQI, the enrichment ratio is at most 0.25.

For FENI, the enrichment ratio was at most 0.25.

With DYDV, the enrichment ratio is at most 0.25.

VDKQ: the enrichment ratio was at most 0.25.

Consider YPPP, for which the enrichment ratio was at most 0.25.

On to EISP, for which the enrichment ratio is at most 0.25.

As for LMLH, the enrichment ratio is at most 0.25.

On to RNPL, for which the enrichment ratio is at most 0.25.

For the variant IKDT, the enrichment ratio is at most 0.25.

With SKPM, the enrichment ratio is at most 0.25.

With EFGS, the enrichment ratio is at most 0.25.

Regarding SRRI, the enrichment ratio was at most 0.25.

Take GYEK: the enrichment ratio was at most 0.25.

Turning to MKAI, the enrichment ratio was at most 0.25.

In the case of TPQF, the enrichment ratio was at most 0.25.

Take MPDC: the enrichment ratio was at most 0.25.

PPRR: the enrichment ratio was at most 0.25.

In the case of VMFN, the enrichment ratio is at most 0.25.

PLTE: the enrichment ratio was at most 0.25.

IHFA: the enrichment ratio was at most 0.25.

With RKYA, the enrichment ratio was at most 0.25.

For KPRG, the enrichment ratio was at most 0.25.

For VCTM, the enrichment ratio turned out to be 23.

Regarding SHAQ, the enrichment ratio is at most 0.25.

In the case of TIGW, the enrichment ratio worked out at 1.07.

NDLE: the enrichment ratio is at most 0.25.

For the variant DKLR, the enrichment ratio was at most 0.25.

Regarding HSSL, the enrichment ratio was 0.798.

For KNYN, the enrichment ratio is at most 0.25.

In the case of AQLA, the enrichment ratio is 19.

ITGI: the enrichment ratio is at most 0.25.

With WPCT, the enrichment ratio was at most 0.25.

As for MTDA, the enrichment ratio is at most 0.25.

For the variant LLEN, the enrichment ratio is at most 0.25.

Take FVMF: the enrichment ratio was determined as 2.56.

Consider MQND, for which the enrichment ratio was at most 0.25.

For LCKM, the enrichment ratio is at most 0.25.

With IPCY, the enrichment ratio was at most 0.25.

In the case of DFAS, the enrichment ratio was at most 0.25.

As for NIFT, the enrichment ratio was at most 0.25.

In the case of LMCS, the enrichment ratio is at most 0.25.

As to KIVL, the enrichment ratio was at most 0.25.

On to SGTP, for which the enrichment ratio was at most 0.25.

For the variant EHVF, the enrichment ratio is at most 0.25.

As to CSRP, the enrichment ratio is at most 0.25.

Take LSES: the enrichment ratio was at most 0.25.

With PWDA, the enrichment ratio is at most 0.25.

With YLMK, the enrichment ratio was at most 0.25.

Take LADS: the enrichment ratio was found to be 1.25.

As for MNFP, the enrichment ratio was at most 0.25.

As for TGAV, the enrichment ratio was 17.1.

For MKDL, the enrichment ratio is at most 0.25.

Take HAFK: the enrichment ratio was at most 0.25.

On to MPLP, for which the enrichment ratio was at most 0.25.

On to KATA, for which the enrichment ratio is at most 0.25.

In the case of HQPY, the enrichment ratio was at most 0.25.

For ALVN, the enrichment ratio was determined as 13.7.

For the variant AMNM, the enrichment ratio is at most 0.25.

Regarding FEPQ, the enrichment ratio is at most 0.25.

As for SFMC, the enrichment ratio is at most 0.25.

In the case of GESF, the enrichment ratio came out at 0.55.

Turning to VTKI, the enrichment ratio was at most 0.25.

RQYK: the enrichment ratio was at most 0.25.

In the case of SHLV, the enrichment ratio is 6.04.

As for IGSD, the enrichment ratio is at most 0.25.

On to PSSA, for which the enrichment ratio was at most 0.25.

Consider SSQM, for which the enrichment ratio is 3.62.

For the variant AWVS, the enrichment ratio was at most 0.25.

As to KIAV, the enrichment ratio was at most 0.25.

For the variant GQKR, the enrichment ratio is at most 0.25.

Regarding NVRV, the enrichment ratio was at most 0.25.

Consider THSV, for which the enrichment ratio was determined as 7.68.

For the variant PSYN, the enrichment ratio came out at 0.446.

On to YSVW, for which the enrichment ratio is at most 0.25.

With TVMV, the enrichment ratio stood at 5.14.

In the case of HCLF, the enrichment ratio is at most 0.25.

HPMM: the enrichment ratio is at most 0.25.

As for WRAY, the enrichment ratio is at most 0.25.

Turning to FIYG, the enrichment ratio was at most 0.25.

Consider PRYR, for which the enrichment ratio is at most 0.25.

Turning to SITG, the enrichment ratio worked out at 16.2.

As to TDQV, the enrichment ratio came to 4.18.

FLRM: the enrichment ratio was at most 0.25.

On to RMVT, for which the enrichment ratio was at most 0.25.

On to WSGK, for which the enrichment ratio is at most 0.25.

As to RWSC, the enrichment ratio is at most 0.25.

Turning to QNGM, the enrichment ratio was 16.

For the variant PNYG, the enrichment ratio is at most 0.25.

On to FFPS, for which the enrichment ratio is at most 0.25.

For the variant TSGL, the enrichment ratio worked out at 7.2.

Turning to MRKR, the enrichment ratio is at most 0.25.

On to GCSM, for which the enrichment ratio came to 5.

EGGH: the enrichment ratio is at most 0.25.

In the case of NTAH, the enrichment ratio was at most 0.25.

On to VMRR, for which the enrichment ratio was at most 0.25.

Take PSHY: the enrichment ratio amounted to 0.663.

On to WTVT, for which the enrichment ratio was at most 0.25.

For the variant PYKP, the enrichment ratio is at most 0.25.

As to WVRT, the enrichment ratio is at most 0.25.

In the case of WNDF, the enrichment ratio was at most 0.25.

Turning to AQIM, the enrichment ratio amounted to 2.44.

Consider HGPR, for which the enrichment ratio was at most 0.25.

Take TAMI: the enrichment ratio was determined as 7.97.

Regarding VYSL, the enrichment ratio is at most 0.25.

For RMHS, the enrichment ratio was at most 0.25.

For YPEP, the enrichment ratio was at most 0.25.

As to EQNH, the enrichment ratio was at most 0.25.

In the case of TKMF, the enrichment ratio is 11.5.

For the variant GKNT, the enrichment ratio was at most 0.25.

As to KIRP, the enrichment ratio was at most 0.25.

Consider IIGS, for which the enrichment ratio was at most 0.25.

Turning to HDVN, the enrichment ratio is at most 0.25.

For ACNG, the enrichment ratio was at most 0.25.

Regarding MKDT, the enrichment ratio is at most 0.25.

In the case of DWKP, the enrichment ratio was at most 0.25.

Consider KAFC, for which the enrichment ratio is at most 0.25.

Consider RKFD, for which the enrichment ratio was at most 0.25.

As for NIKR, the enrichment ratio is at most 0.25.

Consider PNTG, for which the enrichment ratio is at most 0.25.

Take YFFH: the enrichment ratio was at most 0.25.

For GYRN, the enrichment ratio was at most 0.25.

As for DALA, the enrichment ratio is at most 0.25.

In the case of PDVW, the enrichment ratio is at most 0.25.

With VSFP, the enrichment ratio is at most 0.25.

In the case of SAHA, the enrichment ratio was at most 0.25.

As to MQPW, the enrichment ratio is at most 0.25.

Take FMPQ: the enrichment ratio was at most 0.25.
